Source: ChEMBL document CHEMBL4888484, “Replenishing the malaria drug discovery pipeline: Screening and hit evaluation of the MMV Hit Generation Library 1 (HGL1) against asexual blood stage Plasmodium falciparum ,using a nano luciferase reporter read-out” (2022)
Screen size: about 150,000 compounds; about 540 (0.36%) showed an effect of 50% or more. The list shows a part of the results.

The molecules below were run on Plasmodium falciparum (assay: Primary screen in NF54 nanoGlo assay, in single point, at 2uM, 72h; a lower Z score goes with more inhibition). Settings: timepoint 72 hour.
Type: functional, Erythrocyte

| Structure (SMILES) | % Inhibition | Z score |
| --- | --- | --- |
| CCC(CC)n1nc(C)cc1C(=O)N(C)c1cccnc1N(C)C | -8% | 0.69 |
| Cn1nc2c(c1C(=O)NCC[C@H]1CCc3ccccc31)CS(=O)(=O)CC2 | -12% | 1.87 |
| CCc1nc(CNC(=O)C2CC(O)(C3CCCCC3)C2)co1 (stereo not drawn) | 5% | -0.58 |
| O=S1(=O)CCCN1CCN1CCCC[C@H]1c1nc2ccccc2o1 | 4% | -0.64 |
| COc1c(C(=O)Nc2ccccc2)oc2ccc(NC(=O)Cc3ccc(Cl)cc3)cc12 | -12% | 1.41 |
| CC(=O)N[C@@H](C)c1cc(C)c(F)c(C)c1 | 14% | -2 |
| CCN(CC)CC(=O)N1CC[C@@]2(CCCN(Cc3cc(OC)ccc3F)C2=O)C1 | -9% | 1.63 |
| COc1ccc(CNC(=O)c2cc3n(n2)CCCN(Cc2ccc(C)cc2)C3=O)cc1 | -6% | 1.06 |
| CC(CN1C(=O)[C@H](C)N(C)C1=O)c1nccs1 (stereo partly drawn) | -16% | 2.47 |
| O=S(=O)(NC[C@H](O)c1ccc(-c2cccs2)s1)C1CC1 | 0% | 0.03 |
| COc1ccc2ncn(CCCc3ccccn3)c(=O)c2c1 | -14% | 1.82 |
| CC(C)C[C@H]1CC(=O)Nc2c1c(=O)[nH]n2C1CCCCCC1 | 3% | -0.44 |
| Clc1cnccc1NCCCN1CCOCC1 | 5% | -0.97 |
| C[C@H](NC(=O)c1cncc(F)c1)c1ncnn1C | -2% | 0.3 |
| Cc1nnc(-c2ccc3ccn(CC(=O)Nc4ncccc4C)c3c2)o1 | 2% | -0.21 |
| CCCC(C(=O)N(C)C1CCS(=O)(=O)C1)N1CCN(C(=O)OC(C)(C)C)CC1 (stereo not drawn) | -1% | 0.13 |
| O[C@H]1CN(Cc2ncc[nH]2)C[C@@H]1Cc1ccccc1 | -14% | 2.13 |
| O=C(N[C@H]1CCCCNC1=O)c1cc(Cl)c[nH]1 | 10% | -1.8 |
| CCn1cnc2c(N3CCC[C@H](CC(C)(C)C(N)=O)C3)ncnc21 | 8% | -1.51 |
| CCN1C(=O)C2(CCN(C(=O)c3ccoc3)CC2)C[C@H]1C(=O)NC1CCCC1 | -9% | 1.18 |
| COCCCN(CCC(=O)NCC(C)C)C(=O)c1ccoc1 | 3% | -0.67 |

| Structure (SMILES) | % Inhibition | Z score |
| --- | --- | --- |
| Cc1nc(C)c(CN2CCN(c3ncccn3)CC2)s1 | -9% | 1.37 |
| CC(=O)N1C[C@H](NC(=O)c2[nH]nc(C)c2Cl)[C@@H](C2CC2)C1 | 9% | -1.17 |
| Cc1noc(NS(=O)(=O)c2ccc3c(c2)CCCC3)c1C | -7% | 0.96 |
| CC1=Nc2ccccc2C12CCN(C(=O)[C@H]1CCC(=O)N1C)CC2 | -6% | 1.21 |
| COc1cc(C(=O)O[C@H]2CCCN(c3ccnc(N)n3)C2)ccc1C | -9% | 1.09 |
| COC(=O)C1CC2CCCCC2N1S(=O)(=O)N1CCOCC1 (stereo not drawn) | -14% | 2.21 |
| Cc1ccc(-c2nc3cnccn3c2Nc2ccc3c(c2)OCCO3)o1 | -21% | 3.21 |
| Cc1cc(C)c(C(=O)N2CC3CCCC3C2)c(=O)[nH]1 (stereo not drawn) | 32% | -3.65 |
| Cc1nc(C2(c3ccc(Cl)cc3)CCC2)n(CCCO)n1 | -22% | 2.84 |
| COc1ccc(C(=O)N2CCc3[nH]c(-c4cn[nH]c4)nc3C2)c(F)c1F | 0% | 0.04 |
| Cc1ccc2c(c1)N(C)C(=O)c1cc(NC(=O)c3c(F)cccc3F)ccc1O2 | -23% | 2.68 |
| Cc1ccc(NC(=O)[C@@H]2CC(=O)N=C(N3CCOCC3)N2)cc1Cl | 37% | -0.83 |
| CC(C)CN(C(=O)c1ocnc1C(F)F)[C@@H](C)c1ccccc1Cl | -9% | 1.35 |
| COc1ccccc1Oc1c[nH]nc1-c1ccc(OCc2ccccc2)cc1O | -17% | 2.49 |
| CCc1cccc2sc(NC[C@H]3CCCO3)nc12 | 12% | -1.49 |
| CCOc1ccccc1COC(=O)c1ccnc(C)n1 | -10% | 1.08 |
| COc1cc(C2CN(C(=O)c3cccc(Cl)c3)CC2C(=O)N2CCCCC2)cc(OC)c1OC (stereo not drawn) | -8% | 1.31 |
| CCCc1noc(C(C)NCC2CCOC2c2cnn(C)c2)n1 (stereo not drawn) | -15% | 1.25 |
| CCN(C(=O)c1cc(C)c(C)[nH]c1=O)[C@H]1COC[C@@H]1O | -3% | 0.54 |
| Cc1n[nH]c(C)c1NC(=O)N1CCC[C@]1(C)Cc1cccc(F)c1 | -4% | 0.48 |
| C[C@H]1C(=O)N(c2ccc(-c3ccccc3)cc2)CCN1Cc1ccc(F)cc1F | -4% | 0.46 |

| Structure (SMILES) | % Inhibition | Z score |
| --- | --- | --- |
| O=S(=O)(c1ccc(-c2csc(N3N=C(c4ccccc4)C[C@H]3c3ccccc3)n2)cc1)N1CCCC1 | -7% | 1.28 |
| O=C(NCCc1noc2ccccc12)c1cnn(C2CC2)c1 | 3% | -0.65 |
| CO[C@H]1CCCN(S(=O)(=O)CC2CN(C(=O)OC(C)(C)C)C2)C1 | 9% | -1.01 |
| COc1ccc(-n2nc3nc(NCC(C)C)nc(-c4cccc(F)c4)c3c2N)cc1 | -10% | 1.3 |
| CC(C)CN(CC(=O)N1CCOCC1)c1cccc(O)c1 | 4% | -0.59 |
| O=C(Nc1ccc2c(c1)cc(C(=O)NCc1ccco1)n2Cc1ccc(F)cc1)c1ccco1 | -12% | 2.19 |
| Cn1cc(C2C[S+]([O-])CCN2CC(=O)Nc2ccc(Cl)cn2)cn1 (stereo not drawn) | -5% | 0.55 |
| CCOc1ccc(C(=O)N2Cc3cnc(CC(C)C)nc3C2)cc1OCC | 1% | -0.16 |
| Cc1noc2nc(C3CC3)cc(-c3nc(-c4ccncc4)no3)c12 | 16% | -2.22 |
| C[C@H]1CCOCCN1C(=O)Nc1ccccc1N1CCCC1 | -14% | 1.65 |
| c1ccc(CCCO[C@H]2CCN(c3ccc4nnnn4n3)C2)cc1 | -3% | 0.57 |
| O=C(CS(=O)(=O)Cc1ccccc1C1CC1)Nc1ccccc1 | -3% | 0.31 |
| Cc1ccc(-c2ccc(C(=O)N3CCCN(C(=O)C(F)(F)F)CC3)cc2)o1 | -17% | 2.19 |
| O=C(c1cnc(-c2cccs2)nc1)N1CCN(CCO)C[C@H](O)C1 | -11% | 1.02 |
| CC(C)(C)OC(=O)N1CCC[C@](C)(C(=O)Nc2cccc(C(=O)NC3CC3)c2)C1 | -19% | 1.92 |
| CCOC[C@@H](O)CN(Cc1c(C)nn(-c2ccccc2)c1Oc1cccc(C)c1)C1CC1 | 33% | -4.48 |
| Cc1csc(NC(=O)CN2CC[C@H](O)C2)n1 | -13% | 1.91 |
| Cc1noc([C@H](C)NC(=O)Cc2ccc3[nH]c(C)nc3c2)n1 | 0% | 0.01 |
| CN1CCCC[C@@H]1CN(C)S(=O)(=O)CC1CCCC1 | -14% | 1.27 |
| CCCC[C@H](NC(=O)c1ccc(-c2cnc(=O)[nH]c2)cc1)C(N)=O | 0% | 0 |
| Cc1cc(C(=O)NCc2ccc(-c3cnn(C)c3)nc2)c(C)o1 | 10% | -1.27 |

| Structure (SMILES) | % Inhibition | Z score |
| --- | --- | --- |
| Cc1cccc(S(=O)(=O)N2CCC(n3cnnc3C(C)C)CC2)c1 | -8% | 1.32 |
| Cc1cc(C(=O)N2CCN(Cc3nc(-c4cccs4)no3)CC2)on1 | -4% | 0.5 |
| COc1ccc(CN2C(=O)N[C@@H](CC(=O)Nc3nccs3)C2=O)cc1 | -2% | 0.32 |
| OCc1cccc(N(Cc2ncccn2)C2Cc3ccccc3C2)c1 | -16% | 1.89 |
| CNC(=O)CC1CCN(C(=O)[C@]2(C)CCOc3ccccc32)CC1 | 1% | -0.14 |
| COc1ccc(CNC(=O)[C@@H](C)NC(=O)c2cccnc2)cc1OC | -6% | 0.74 |
| COCCn1ccc(NC(=O)NC2CCC(C)(C)CC2)n1 | -6% | 0.64 |
| O=C(Nc1cc(Cl)ccc1Oc1ccc(Br)c2ccccc12)c1cc(Cl)cc(Cl)c1O | -4% | 0.53 |
| Cn1c(=O)sc2cc(S(=O)(=O)N3CCN(c4ccc(Cl)cc4)CC3)ccc21 | -7% | 1.08 |
| NC[C@H]1CN(Cc2cccn2-c2ccc(Cl)cn2)CCO1 | -4% | 0.5 |
| CN(CC[C@H]1CCCCN1C)Cc1cccc(C#N)c1 | 7% | -0.94 |
| Cc1oc(C#N)cc1C(=O)N1CC(C)CC1c1cccnc1 (stereo not drawn) | 6% | -0.66 |
| Cc1noc2nc(C3CC3)cc(C(=O)Nc3ccc4c(c3)OCCO4)c12 | 1% | -0.13 |
| O=C(CC1CC(c2ccccc2)C1)N1CCC(CCCO)CC1 (stereo not drawn) | -13% | 1.72 |
| COCCNC(=O)[C@H]1CCCN(S(=O)(=O)c2ccc3c(c2)nnn3C(C)C)C1 | -20% | 1.77 |
| Cc1ccc(-c2ccc3nn(Cc4ccc(F)cc4Cl)c(=O)n3n2)cc1C | -12% | 1.55 |
| O=C(c1ccc2c(c1)OCO2)N1CCC2(CC1)OC[C@@H](C(=O)N1CCOCC1)N2C(=O)c1ccc(F)cc1 | -1% | 0.15 |
| O=C(NCc1scnc1-c1ccccc1)c1ccon1 | 5% | -0.75 |
| CCCn1cc(N[C@@H](C)C(=O)NC2CC2)cn1 | -2% | 0.18 |
| O=C(O)c1ccc(N2CCC(N3CCCCC3)CC2)c(NS(=O)(=O)c2cccc(F)c2)c1 | -15% | 1.44 |
| CCc1ccc(CN2CCN(S(=O)(=O)Cc3ccon3)CC2)o1 | 17% | -1.71 |
